Data: publication PMC9410898
These are yes or no findings as the source states them, for the method shown. Binding seen in cells or lysates may run through a third protein. Some entries that bind do so weakly or less than the wild type. Sequences can lack the tags named with a protein.

Protein sequences, listed by entry. Tags and fused reporters are not part of them.
UniProt Q9NQT4: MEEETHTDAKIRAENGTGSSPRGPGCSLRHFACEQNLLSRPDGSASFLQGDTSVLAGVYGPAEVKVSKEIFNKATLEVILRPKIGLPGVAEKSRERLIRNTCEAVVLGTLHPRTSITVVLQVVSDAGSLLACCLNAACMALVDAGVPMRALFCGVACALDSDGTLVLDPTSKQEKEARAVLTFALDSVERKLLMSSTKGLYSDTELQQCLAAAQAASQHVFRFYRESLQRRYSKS
UniProt Q06265: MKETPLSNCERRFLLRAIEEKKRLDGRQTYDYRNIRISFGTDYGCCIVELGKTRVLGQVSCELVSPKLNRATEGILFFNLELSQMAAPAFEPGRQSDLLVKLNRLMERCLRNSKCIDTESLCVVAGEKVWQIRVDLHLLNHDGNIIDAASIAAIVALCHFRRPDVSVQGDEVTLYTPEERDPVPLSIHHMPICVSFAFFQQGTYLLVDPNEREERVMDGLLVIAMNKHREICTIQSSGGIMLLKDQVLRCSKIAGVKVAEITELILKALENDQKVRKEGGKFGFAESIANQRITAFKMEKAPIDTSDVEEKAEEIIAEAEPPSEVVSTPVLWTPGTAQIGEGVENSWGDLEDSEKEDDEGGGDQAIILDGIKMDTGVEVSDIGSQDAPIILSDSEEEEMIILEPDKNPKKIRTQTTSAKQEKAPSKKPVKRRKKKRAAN

T1: GST-MPP6 full-length (human) (UniProt Q99547)
T1 sequence: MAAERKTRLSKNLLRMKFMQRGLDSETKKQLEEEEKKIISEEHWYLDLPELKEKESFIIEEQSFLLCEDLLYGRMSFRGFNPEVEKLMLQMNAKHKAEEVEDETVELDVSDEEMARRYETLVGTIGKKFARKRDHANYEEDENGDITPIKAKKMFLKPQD

T2: GST-MPP6 ΔN35 (human) (UniProt Q99547)
T2 sequence: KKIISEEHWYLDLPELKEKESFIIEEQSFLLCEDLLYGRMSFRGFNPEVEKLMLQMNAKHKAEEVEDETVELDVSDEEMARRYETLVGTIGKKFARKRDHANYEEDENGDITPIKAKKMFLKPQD

T3: GST-MPP6 ΔC33 (human) (UniProt Q99547)
T3 sequence: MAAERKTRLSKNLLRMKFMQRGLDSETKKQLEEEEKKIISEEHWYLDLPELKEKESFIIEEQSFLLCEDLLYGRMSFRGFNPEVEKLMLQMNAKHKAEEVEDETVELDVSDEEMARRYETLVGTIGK

T4: GST-MPP6 ΔC11 (human) (UniProt Q99547)
T4 sequence: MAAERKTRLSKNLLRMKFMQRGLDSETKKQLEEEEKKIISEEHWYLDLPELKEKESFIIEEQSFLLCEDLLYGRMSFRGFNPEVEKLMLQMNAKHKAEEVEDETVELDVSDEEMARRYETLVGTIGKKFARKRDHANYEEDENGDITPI

T5: GST-MPP6 with the internal region 81–105 deleted (human) (UniProt Q99547)
T5 sequence: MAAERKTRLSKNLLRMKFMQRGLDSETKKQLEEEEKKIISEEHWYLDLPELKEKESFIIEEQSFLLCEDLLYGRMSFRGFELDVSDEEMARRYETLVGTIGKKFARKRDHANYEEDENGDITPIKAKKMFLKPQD

T6: GST-MPP6 with the internal region 47–68 deleted (human) (UniProt Q99547)
T6 sequence: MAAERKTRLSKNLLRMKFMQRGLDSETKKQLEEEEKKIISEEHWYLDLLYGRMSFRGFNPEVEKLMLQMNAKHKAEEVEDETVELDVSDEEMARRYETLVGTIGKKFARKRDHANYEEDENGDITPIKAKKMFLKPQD

T7: MTR4 (human (endogenous in HeLa)) (UniProt P42285)
T7 sequence: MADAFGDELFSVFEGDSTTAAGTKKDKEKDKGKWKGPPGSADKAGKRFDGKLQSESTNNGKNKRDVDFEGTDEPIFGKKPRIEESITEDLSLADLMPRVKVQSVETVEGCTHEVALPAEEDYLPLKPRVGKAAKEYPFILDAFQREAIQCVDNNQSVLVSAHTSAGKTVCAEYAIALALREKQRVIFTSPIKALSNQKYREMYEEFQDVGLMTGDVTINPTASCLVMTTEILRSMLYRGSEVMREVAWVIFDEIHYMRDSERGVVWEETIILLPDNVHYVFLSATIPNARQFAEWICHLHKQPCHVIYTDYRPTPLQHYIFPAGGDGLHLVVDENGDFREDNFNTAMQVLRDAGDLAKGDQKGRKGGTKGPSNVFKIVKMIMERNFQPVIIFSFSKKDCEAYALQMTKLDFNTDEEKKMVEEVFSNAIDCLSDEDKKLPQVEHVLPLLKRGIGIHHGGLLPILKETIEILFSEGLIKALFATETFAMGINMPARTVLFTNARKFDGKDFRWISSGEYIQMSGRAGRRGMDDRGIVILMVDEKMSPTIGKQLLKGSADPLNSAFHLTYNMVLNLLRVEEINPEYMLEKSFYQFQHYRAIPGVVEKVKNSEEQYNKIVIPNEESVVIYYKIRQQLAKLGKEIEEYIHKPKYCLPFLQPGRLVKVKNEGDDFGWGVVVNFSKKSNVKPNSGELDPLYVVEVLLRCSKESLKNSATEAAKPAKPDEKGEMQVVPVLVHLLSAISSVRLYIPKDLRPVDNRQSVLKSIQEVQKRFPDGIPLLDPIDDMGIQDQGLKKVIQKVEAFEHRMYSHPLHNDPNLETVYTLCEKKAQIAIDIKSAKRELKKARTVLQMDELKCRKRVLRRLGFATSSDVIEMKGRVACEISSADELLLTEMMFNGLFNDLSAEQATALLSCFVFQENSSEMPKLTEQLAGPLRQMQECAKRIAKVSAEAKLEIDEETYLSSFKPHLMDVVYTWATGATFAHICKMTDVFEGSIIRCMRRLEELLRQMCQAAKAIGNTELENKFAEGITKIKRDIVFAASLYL


Experiments:
[1] = biological target: T1, GST-MPP6 full-length (human); experiment: pull-down; GST-MPP6 proteins on glutathione beads, 3 h at 4°C with nuclear extract of FLAG-RRP45 expressing HeLa Flp-In T-REx cells (preincubated with GST beads), PBS with 0.1% Triton X-100, 0.2 mM PMSF, 0.5 mM DTT; immunoblot; only the target purified
[2] = biological target: T2, GST-MPP6 ΔN35 (human); experiment: as above
[3] = biological target: T3, GST-MPP6 ΔC33 (human); experiment: as above
[4] = biological target: T4, GST-MPP6 ΔC11 (human); experiment: as above
[5] = biological target: T5, GST-MPP6 with the internal region 81–105 deleted (human); experiment: as above
[6] = biological target: T6, GST-MPP6 with the internal region 47–68 deleted (human); experiment: as above
[7] = biological target: T7, MTR4 (human (endogenous in HeLa)); experiment: co-IP; anti-MTR4 antiserum or anti-RRP46 antibody on beads, nuclear extracts of HeLa Flp-In T-REx cells expressing FLAG-fused MPP6 mutants, overnight at 4°C; washed with PBS, 0.1% Triton X-100; immunoblot; rabbit pre-immune antiserum as control
[8] = biological target: RRP46 (human (endogenous in HeLa)) (UniProt Q9NQT4); experiment: as above

Row | binding [1] | binding [2] | binding [3] | binding [4] | binding [5] | binding [6] | binding [7] | binding [8] | Molecule
1 | binds | binds | binds | binds | – | – | – | – | FLAG-RRP45 (from UniProt Q06265 1-439)
2 | binds | binds | binds | binds | binds | binds | – | – | RRP6 (protein, UniProt Q01780 1-885) MAPPSTREPRVLSATSATKSDGEMVLPGFPDADSFVKFALGSVVAVTKASGGLPQFGDEYDFYRSFPGFQAFCETQGDRLLQCMSRVMQYHGCRSNIKDRSKVTELEDKFDLLVDANDVILERVGILLDEASGVNKNQQPVLPAGLQVPKTVVSSWNRKAAEYGKKAKSETFRLLHAKNIIRPQLKFREKIDNSNTPFLPKIFIKPNAQKPLPQALSKERRERPQDRPEDLDVPPALADFIHQQRTQQVEQDMFAHPYQYELNHFTPADAVLQKPQPQLYRPIEETPCHFISSLDELVELNEKLLNCQEFAVDLEHHSYRSFLGLTCLMQISTRTEDFIIDTLELRSDMYILNESLTDPAIVKVFHGADSDIEWLQKDFGLYVVNMFDTHQAARLLNLGRHSLDHLLKLYCNVDSNKQYQLADWRIRPLPEEMLSYARDDTHYLLYIYDKMRLEMWERGNGQPVQLQVVWQRSRDICLKKFIKPIFTDESYLELYRKQKKHLNTQQLTAFQLLFAWRDKTARREDESYGYVLPNHMMLKIAEELPKEPQGIIACCNPVPPLVRQQINEMHLLIQQAREMPLLKSEVAAGVKKSGPLPSAERLENVLFGPHDCSHAPPDGYPIIPTSGSVPVQKQASLFPDEKEDNLLGTTCLIATAVITLFNEPSAEDSKKGPLTVAQKKAQNIMESFENPFRMFLPSLGHRAPVSQAAKFDPSTKIYEISNRWKLAQVQVQKDSKEAVKKKAAEQTAAREQAKEACKAAAEQAISVRQQVVLENAAKKRERATSDPRTTEQKQEKKRLKISKKPKDPEPPEKEFTPYDYSQSDFKAFAGNSKSKVSSQFDPNKQTPSGKKCIAAKKIKQSVGNKSMSFPTGKSDRGFRYNWPQR
3 | – | – | – | – | – | – | binds | binds | FLAG-MPP6 full-length (protein, UniProt Q99547 1-160) MAAERKTRLSKNLLRMKFMQRGLDSETKKQLEEEEKKIISEEHWYLDLPELKEKESFIIEEQSFLLCEDLLYGRMSFRGFNPEVEKLMLQMNAKHKAEEVEDETVELDVSDEEMARRYETLVGTIGKKFARKRDHANYEEDENGDITPIKAKKMFLKPQD
4 | – | – | – | – | – | – | binds | binds | FLAG-MPP6 ΔN4 (domain or fragment, UniProt Q99547 5-160) RKTRLSKNLLRMKFMQRGLDSETKKQLEEEEKKIISEEHWYLDLPELKEKESFIIEEQSFLLCEDLLYGRMSFRGFNPEVEKLMLQMNAKHKAEEVEDETVELDVSDEEMARRYETLVGTIGKKFARKRDHANYEEDENGDITPIKAKKMFLKPQD
5 | – | – | – | – | – | – | no binding | binds | FLAG-MPP6 ΔN35 (domain or fragment, UniProt Q99547 36-160) KKIISEEHWYLDLPELKEKESFIIEEQSFLLCEDLLYGRMSFRGFNPEVEKLMLQMNAKHKAEEVEDETVELDVSDEEMARRYETLVGTIGKKFARKRDHANYEEDENGDITPIKAKKMFLKPQD
6 | – | – | – | – | – | – | no binding | binds | FLAG-MPP6 Δ5–18 (protein, UniProt Q99547) MAAEMQRGLDSETKKQLEEEEKKIISEEHWYLDLPELKEKESFIIEEQSFLLCEDLLYGRMSFRGFNPEVEKLMLQMNAKHKAEEVEDETVELDVSDEEMARRYETLVGTIGKKFARKRDHANYEEDENGDITPIKAKKMFLKPQD
7 | – | – | – | – | – | – | no binding | binds | FLAG-MPP6 Δ19–35 (protein, UniProt Q99547) MAAERKTRLSKNLLRMKFKKIISEEHWYLDLPELKEKESFIIEEQSFLLCEDLLYGRMSFRGFNPEVEKLMLQMNAKHKAEEVEDETVELDVSDEEMARRYETLVGTIGKKFARKRDHANYEEDENGDITPIKAKKMFLKPQD
